The other results are listed elsewhere or left out. Sequences were assembled here from the parent chain. Inactive controls read about 0.05.
B1: TEV protease; numbered along this chain (parent)
chain: MGESLFKGPRDYNPISSSICHLTNESDGHTTSLYGIGFGPFIITNKHLFRRNNGTLVVQSLHGVFKVKDTTTLQQHLVDGRDMIIIRMPKDFPPFPQKLKFREPQREERICLVTTNFQTKSMSSMVSDTSCTFPSGDGIFWKHWIQTKDGQCGSPLVSTRDGFIVGIHSASNFTNTNNYFTSVPKNFMELLTNQEAQQWVSGWRLNADSVLWGGHKVFMVKPEEPFQPVKEATQL

Variants of: B1
Assay: raw area under fraction-flipped curve 0-4 h after induction (AUC4h, not background-subtracted), DNA-recorder readout of cleavage of the substrate (dimensionless); higher = more cleavage of the substrate by the protease variant
Conditions: temperature: 34 °C; time window: 0-4 h after rhamnose induction
Experimental: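 In vivo DNA recorder in E. coli TOP10(DE3) ΔrhaA at 34 °C. Each TEVp single-site mutant (parent TEVp 0) is paired with a single-site variant of the 7-mer TEVs (canonical ENLYFQ|S). The substrate sits between flexible linkers in a Bxb1-sfGFP-TEVs-SsrA fusion, so cleavage stabilises Bxb1 and speeds flipping of a recombination array, read by NGS. The value is the raw area under the fraction-flipped curve over 0-4 h after rhamnose induction (AUC4h), with ≥20 reads per time point. It is not background-subtracted; inactive controls average about 0.047.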
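Also: Bxb1 expression induced with 0.2% (w/v) L-rhamnose at OD600 near 0.5, cultures sampled hourly, flipped fraction per protease–substrate barcode pair counted by paired-end Illumina sequencing.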

S26E
area with substrate ENLYFQA: 0.0911
area with substrate ENLYFQC: 0.0919
area with substrate ENLYFQD: 0.0683
area with substrate ENLYFQF: 0.0775
area with substrate ENLYFQG: 0.0891
area with substrate ENLYFQH: 0.0905
area with substrate ENLYFQI: 0.0638
area with substrate ENLYFQK: 0.081
area with substrate ENLYFQL: 0.0624
area with substrate ENLYFQM: 0.0709
area with substrate ENLYFQN: 0.0656
area with substrate ENLYFQP: 0.0658
area with substrate ENLYFQR: 0.061
area with substrate ENLYFQS: 0.0886
area with substrate ENLYFQT: 0.0697
area with substrate ENLYFQV: 0.0577
area with substrate ENLYFQW: 0.0695
area with substrate ENLYFQY: 0.0744

S26Q
area with substrate ENLYFQA: 0.0814
area with substrate ENLYFQC: 0.106
area with substrate ENLYFQD: 0.0676
area with substrate ENLYFQG: 0.0795
area with substrate ENLYFQI: 0.0598
area with substrate ENLYFQK: 0.0689
area with substrate ENLYFQL: 0.0681
area with substrate ENLYFQM: 0.072
area with substrate ENLYFQN: 0.0664
area with substrate ENLYFQP: 0.0651
area with substrate ENLYFQQ: 0.0929
area with substrate ENLYFQR: 0.056
area with substrate ENLYFQS: 0.08
area with substrate ENLYFQT: 0.0618
area with substrate ENLYFQV: 0.0637
area with substrate ENLYFQW: 0.0658
area with substrate ENLYFQY: 0.069

S26R
area with substrate ENLYFQA: 0.0778
area with substrate ENLYFQC: 0.0787
area with substrate ENLYFQD: 0.0587
area with substrate ENLYFQI: 0.0599
area with substrate ENLYFQK: 0.0582
area with substrate ENLYFQL: 0.0522
area with substrate ENLYFQM: 0.0658
area with substrate ENLYFQN: 0.0591
area with substrate ENLYFQP: 0.0355
area with substrate ENLYFQQ: 0.0515
area with substrate ENLYFQR: 0.0631
area with substrate ENLYFQS: 0.0726
area with substrate ENLYFQT: 0.0724
area with substrate ENLYFQV: 0.0587
area with substrate ENLYFQW: 0.0598
area with substrate ENLYFQY: 0.0574

H29I
area with substrate ENLYFQA: 0.0929
area with substrate ENLYFQC: 0.11
area with substrate ENLYFQG: 0.102
area with substrate ENLYFQK: 0.0781
area with substrate ENLYFQL: 0.0712
area with substrate ENLYFQM: 0.0933
area with substrate ENLYFQN: 0.0979
area with substrate ENLYFQR: 0.0495
area with substrate ENLYFQS: 0.1
area with substrate ENLYFQT: 0.0733
area with substrate ENLYFQV: 0.0412
area with substrate ENLYFQY: 0.0859

H29M
area with substrate ENLYFQA: 0.109
area with substrate ENLYFQC: 0.126
area with substrate ENLYFQD: 0.0799
area with substrate ENLYFQG: 0.151
area with substrate ENLYFQI: 0.0531
area with substrate ENLYFQK: 0.0659
area with substrate ENLYFQL: 0.0584
area with substrate ENLYFQM: 0.0897
area with substrate ENLYFQQ: 0.0805
area with substrate ENLYFQR: 0.0643
area with substrate ENLYFQS: 0.108
area with substrate ENLYFQT: 0.0924
area with substrate ENLYFQW: 0.056
area with substrate ENLYFQY: 0.127

H29P
area with substrate ENLYFQA: 0.0944
area with substrate ENLYFQC: 0.0765
area with substrate ENLYFQD: 0.057
area with substrate ENLYFQF: 0.0909
area with substrate ENLYFQI: 0.061
area with substrate ENLYFQK: 0.0549
area with substrate ENLYFQL: 0.0638
area with substrate ENLYFQM: 0.0886
area with substrate ENLYFQN: 0.0693
area with substrate ENLYFQP: 0.0472
area with substrate ENLYFQQ: 0.0733
area with substrate ENLYFQR: 0.0536
area with substrate ENLYFQS: 0.0839
area with substrate ENLYFQV: 0.0661
area with substrate ENLYFQW: 0.0724

L33H
area with substrate ENLYFQA: 0.0701
area with substrate ENLYFQC: 0.0751
area with substrate ENLYFQD: 0.0699
area with substrate ENLYFQE: 0.0636
area with substrate ENLYFQG: 0.0777
area with substrate ENLYFQH: 0.0528
area with substrate ENLYFQI: 0.0587
area with substrate ENLYFQK: 0.0614
area with substrate ENLYFQL: 0.0556
area with substrate ENLYFQM: 0.0548
area with substrate ENLYFQN: 0.0475
area with substrate ENLYFQP: 0.0619
area with substrate ENLYFQQ: 0.0683
area with substrate ENLYFQS: 0.0696
area with substrate ENLYFQT: 0.0606
area with substrate ENLYFQW: 0.0685
area with substrate ENLYFQY: 0.0466

L33R
area with substrate ENLYFQA: 0.057
area with substrate ENLYFQC: 0.0528
area with substrate ENLYFQF: 0.0497
area with substrate ENLYFQI: 0.0663
area with substrate ENLYFQK: 0.0552
area with substrate ENLYFQM: 0.0591
area with substrate ENLYFQN: 0.0629
area with substrate ENLYFQQ: 0.0501
area with substrate ENLYFQR: 0.0669
area with substrate ENLYFQS: 0.0608
area with substrate ENLYFQT: 0.0671
area with substrate ENLYFQV: 0.0728
area with substrate ENLYFQW: 0.057
area with substrate ENLYFQY: 0.05

L33Y
area with substrate ENLYFQA: 0.0501
area with substrate ENLYFQC: 0.0593
area with substrate ENLYFQD: 0.0567
area with substrate ENLYFQE: 0.0884
area with substrate ENLYFQH: 0.0636
area with substrate ENLYFQI: 0.0545
area with substrate ENLYFQK: 0.0666
area with substrate ENLYFQL: 0.0686
area with substrate ENLYFQM: 0.0926
area with substrate ENLYFQN: 0.0652
area with substrate ENLYFQP: 0.058
area with substrate ENLYFQR: 0.0473
area with substrate ENLYFQS: 0.0609
area with substrate ENLYFQT: 0.0603
area with substrate ENLYFQV: 0.069
area with substrate ENLYFQW: 0.0555
area with substrate ENLYFQY: 0.0411

G37A
area with substrate ENLYFQA: 0.101
area with substrate ENLYFQD: 0.0511
area with substrate ENLYFQH: 0.088
area with substrate ENLYFQK: 0.0629
area with substrate ENLYFQL: 0.0456
area with substrate ENLYFQM: 0.0641
area with substrate ENLYFQN: 0.0798
area with substrate ENLYFQR: 0.062
area with substrate ENLYFQS: 0.104
area with substrate ENLYFQT: 0.0641
area with substrate ENLYFQV: 0.0596
area with substrate ENLYFQW: 0.0562

G37F
area with substrate ENLYFQA: 0.0689
area with substrate ENLYFQC: 0.0925
area with substrate ENLYFQF: 0.0496
area with substrate ENLYFQG: 0.0727
area with substrate ENLYFQH: 0.0527
area with substrate ENLYFQI: 0.0519
area with substrate ENLYFQK: 0
area with substrate ENLYFQL: 0.0547
area with substrate ENLYFQM: 0.0593
area with substrate ENLYFQN: 0.0563
area with substrate ENLYFQP: 0.0308
area with substrate ENLYFQQ: 0.0657
area with substrate ENLYFQR: 0.058
area with substrate ENLYFQS: 0.0711
area with substrate ENLYFQT: 0.0548
area with substrate ENLYFQV: 0.0404
area with substrate ENLYFQW: 0.0572
area with substrate ENLYFQY: 0.0852

G39F
area with substrate ENLYFQA: 0.0432
area with substrate ENLYFQC: 0.0403
area with substrate ENLYFQD: 0.0433
area with substrate ENLYFQF: 0.0285
area with substrate ENLYFQG: 0.0391
area with substrate ENLYFQH: 0.0421
area with substrate ENLYFQI: 0.0473
area with substrate ENLYFQK: 0.0401
area with substrate ENLYFQL: 0.0537
area with substrate ENLYFQM: 0.0318
area with substrate ENLYFQN: 0.0367
area with substrate ENLYFQP: 0.0426
area with substrate ENLYFQQ: 0.0391
area with substrate ENLYFQR: 0.0394
area with substrate ENLYFQS: 0.0447
area with substrate ENLYFQT: 0.0476
area with substrate ENLYFQV: 0.0338
area with substrate ENLYFQW: 0.0306
area with substrate ENLYFQY: 0.0397

Reference: the supplement of paper PMC12217912
